Test results as given in PubChem BioAssay AID1347428 (National Center for Advancing Translational Sciences (NCATS), 2020).
Hit rate of the full screen: of about 91,000 compounds, about 290 (0.32%) were called active. Inconclusive means that the source gave no clear call. Such entries were picked first, then a sample of the others. Calls come from the whole dose curve; as a rule, active = well fitted inhibition curve with a large enough effect; inconclusive = small, poorly fitted or top-dose-only effect; inactive = no such curve, though single readings can be large or run the other way. A potency beside an inconclusive call is a rough fit, not a confirmed value.

biological target: Single-stranded DNA cytosine deaminase (Homo sapiens) (UniProt Q9GZX7); assay: Primary qHTS assay for inhibitors of Activation Induced Cytidine Deaminase (AID): AID signal; settings: AID deamination FRET fluorescence, UDG-coupled, 4 h; series mostly up to 115 µM; note: nearly all actives have a fitted effect of over 25% in size
Excerpt: Assay Provider (PI) Patricia Gearhart Ph.D.
National Institute on Aging
National Institute of Health (NIH), Bethesda, MD
Assay Provider (PI) Rahul Kohli Ph.D.
Perelman School of Medicine
University of Pennsylvania, Philadelphia, PA
Activation-Induced Deaminase (AID) is a cytosine deaminase which converts cytosine into uracil within stretches of ssDNA. The presence of uracil in DNA initiates a cascade of mutagenic DNA repair to introduce point mutations and DNA double strand breaks. Specific targeting of AID to the immunoglobulin heavy chain loci (Igh) promotes mutagenesis in the antibody variable region for somatic hypermutation (SHM) or switch regions leading to class switch recombination (CSR). However, AID also plays a role in accumulating unnecessary mutations across the genome. Mis-targeting of AID results in the initiation of tumor development and leads to greater drug resistance among cancer cells when continually expressed. To identify an AID inhibitor, a small molecule library will be screened in collaboration with NCATS core facility at NIH. To confirm biological function, inhibitors will be examined in an in vitro murine B-cell activation assay and subsequent secondary validation screens. Top molecules will be further screened to identify inhibitory efficacy against a wild type primary splenocytes assay. Using these approaches, we hope to identify a small molecule with great efficacy and low toxicity for use as a molecular probe to further characterize AID's intricacies, or even as a therapeutic.
A FRET based analysis of cytosine deamination, was developed to identify potential inhibitors of AID catalytic activity. This screen has two signal output, Read 1 evaluates the AID inhibition response. The second readout (Read 2) evaluates UDG response and is uses as a counterscreen to exclude false positive inhibitors. Inhibition in AID and inactivity in the UDG signal is the desired outcome for this assay.
SEQUENCE No. (e.g., 1, 2, 3, etc.); […] (e.g., Cells, Incubation, Reagent, etc.); VALUE; DESCRIPTION
1a; Reagent; 3 uL; [4/3x] 1 uM AID/2.67 U/mL UDG
1b; Reagent; 3 uL; 2 U/mL UDG
1c; Reagent; 3 uL; 1 uM AID
2a; Compound; 46 nL; Follow-up plates (0.64 uM - 10 mM)
2b; Control; 46 nL; ATA ([…] - 10 mM)
3; Time; 10 min; incubation at room temperature
5; Time; 4 hr; incubation at room temperature
6; Reagent; 4 uL; [2x] 250 mM NaOH
7; Time; 15 sec; centrifuge at 1000 rpm
8; Time; 30 min; incubation at room temperature
9a; Detection; fluorescence (Read 1: AID); EnVision (PerkinElmer) plate reader, 540 excitation and 590 emission filters
9b; Detection; fluorescence (Read 2: UDG); EnVision (PerkinElmer) plate reader, 560 excitation and 665 emission filters
NOTES (numbers refer to sequence above)
1a; Reagents were dispensed in a medium-binding black solid-bottom Greiner plates (789176F) using a BioRptr liquid dispenser. Dispense 3 uL of [4/3x] 1 uM AID (provided by Kohli lab) and [4/3x] 2 U/mL UDG (NEB M0280L) into columns 1, 2, 5 to 48.
1b; Dispense 3 uL of [4/3x] 2 U/mL UDG into column 3.
1c; Dispense 3 uL of [4/3x] 1 uM AID into column 4.
2a; Compound (7-points [uM] (0.64; 3.2; 16; 80; 400; 2,000; 10,000; 20,000) double pin-transferred (Dip Factor = 2) using the Kalypsys (Wako USA) pintool equipped with a 1536 pinhead for a final concentration range of 7.32 nM - 114 uM.
2b; 10 mM Aurintricarboxylic Acid (Sigma A1895) (ATA, 8-point, n = 2, 1:2.5 dilution in column 2) double pin-transferred (Dip Factor = 2) using the Kalypsys (Wako USA) pintool equipped with a 1536 pinhead for a [final] range of 186 nM - 114 uM.
3; Room temperature incubation.
4; Dispense 1 uL of substrate mixture from the Kohli lab [4x] […] DJC20 and [4x] 250 nM DJC23 into columns 1 to 48 .
5; Room temperature incubation.
6; Dispense 4 uL of substrate mixture [2x] 250 mM NaOH into columns 1 to 48.
7; Centrifugation step to remove bubbles.
8; Room temperature incubation
9a; Fluorescence signal (column label AID) was read using the EnVision plate reader. […]
Potency is the fitted concentration of half-maximal effect; tags give direction and shape of the fitted curve.

UniProt Q9GZX7, sequence (Q9GZX7 whole entry, looked up): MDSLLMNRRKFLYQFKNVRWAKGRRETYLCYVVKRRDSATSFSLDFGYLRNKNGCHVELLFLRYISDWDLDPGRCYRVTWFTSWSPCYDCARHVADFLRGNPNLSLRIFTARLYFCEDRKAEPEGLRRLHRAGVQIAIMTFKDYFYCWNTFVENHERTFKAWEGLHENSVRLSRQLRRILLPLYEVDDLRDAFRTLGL

Structure (SMILES)	Potency
Ic1ccc(N2CCN(Cc3c[nH]c4ncccc34)CC2)cc1	inconclusive: 89.1 µM [inhibitor, partial curve]
Cc1ccsc1C(=O)N(C)C1CCN(CCc2ccccn2)CC1	inactive
CCc1ccc(OCC(=O)N(Cc2ccc(C)cc2)Cc2ccco2)cc1	inconclusive: 35.5 µM [inhibitor, full curve]
Cc1cccc(C)c1-n1ncc(C(=O)NCc2ccc3c(c2)OCO3)c1C1CCN(C(=O)OC(C)(C)C)CC1	inconclusive: 28.2 µM [inhibitor, full curve]
Cc1ccc(NC(=O)C(C#N)C(=O)c2ccc(C(C)(C)C)cc2)cc1 (stereo unspecified)	inconclusive: 56.2 µM [inhibitor, partial curve, poor fit]
CCc1ccc(/C=C2\Oc3cc(OS(=O)(=O)c4ccc(OC)cc4)ccc3C2=O)cc1	inactive
COc1ccc(C(=O)NCCn2cc(SCC(=O)Nc3ccc(F)cc3)c3ccccc32)cc1	inconclusive: 50.1 µM [inhibitor, partial curve, poor fit]
CCn1c(=O)cc(OCC(=O)N2CCN(c3cccc(Cl)c3)CC2)c2ccccc21	inconclusive: 39.8 µM [inhibitor, partial curve, poor fit]
O=c1c2ccccc2n(Cc2c(F)cccc2Cl)c(=O)n1Cc1ccccc1	inconclusive: 11.2 µM [inhibitor, full curve]
CC(NC(=O)CSc1nc(-c2cccc(Cl)c2)nc2cc(=O)[nH]n12)c1nc2ccccc2n1C (stereo unspecified)	inactive
COc1cc2c(cc1OC)C(COc1ccc(F)cc1)N(C(=O)Cc1ccccc1)CC2 (stereo unspecified)	inconclusive: 56.2 µM [inhibitor, partial curve, poor fit]
COc1ccc(C(=O)N2CCN(C(=O)Cc3cc(OC)c(OC)c(OC)c3)CC2)cc1	inactive
Cc1ccc(NC(=O)Cn2c(=O)oc3cc(S(=O)(=O)N4CCCCC4)ccc32)c(C)c1	inactive
CC1CCN(C(=O)CSc2nc(-c3cccs3)nc3ccccc23)CC1	inconclusive: 50.1 µM [inhibitor, partial curve, poor fit]
CCOc1ccccc1NC(=O)CSC1=Nc2ccccc2C2=NC(CC(=O)NCc3ccc4c(c3)OCO4)C(=O)N12 (stereo unspecified)	inconclusive: 50.1 µM [inhibitor, partial curve, poor fit]
CCn1c(C(=O)N2CCCC(C(=O)N3CCN(c4ccccc4)CC3)C2)cc2sccc21 (stereo unspecified)	inconclusive: 56.2 µM [inhibitor, partial curve, poor fit]
CCCCCn1nc(C(=O)N2CCN(c3ccc(C(C)=O)cc3)CC2)c2ccccc2c1=O	inconclusive: 56.2 µM [inhibitor, partial curve, poor fit]
CCc1ccc(NC(=O)N2CCC(N3CCN(Cc4ccc(C)cc4)C(=O)C3=O)CC2)cc1	inconclusive: 79.4 µM [inhibitor, single point]
Cc1ccccc1Cn1c2ccccc2c2cnn(CC(=O)N3CCC(C)CC3)c(=O)c21	inconclusive: 22.4 µM [inhibitor, full curve, poor fit]
COc1ccccc1C(=O)Nc1onc2c1CCCC2	inconclusive: 56.2 µM [inhibitor, single point]
CCOc1ccccc1C(=O)Nc1ccc2nc3c(c(Nc4ccc(OC)c(OC)c4)c2c1)CCCC3	inconclusive: 17.8 µM [inhibitor, partial curve, poor fit]

Structure (SMILES)	Potency
O=C(Nc1cccc(C(=O)Nc2ccc(S(=O)(=O)O)c3cc(S(=O)(=O)O)cc(S(=O)(=O)O)c23)c1)Nc1cccc(C(=O)Nc2ccc(S(=O)(=O)O)c3cc(S(=O)(=O)O)cc(S(=O)(=O)O)c23)c1	active: 50.1 µM
O=C(NCCc1ccc(C(F)(F)F)cc1)c1ccccn1	inactive
COc1ccc(-c2noc(CSc3nc(N)cc(=O)[nH]3)n2)cc1	inactive
Cc1cc2[nH]c(=O)c(=O)[nH]c2cc1S(=O)(=O)Nc1ccc(OC(F)(F)F)cc1	inconclusive: 56.2 µM [inhibitor, partial curve, poor fit]
CCOc1ccc(C2C(=O)N(C3CCCCC3)CC(=O)N2CCC2=CCCCC2)cc1OC (stereo unspecified)	inconclusive: 20 µM [inhibitor, full curve]
COc1cccc(NC(=O)CCc2nc(-c3cccs3)no2)c1	inconclusive: 2.82 µM [inhibitor, full curve, poor fit]
O=S(=O)(Cc1ccccc1)c1ccc2ccccc2c1	inactive
Cc1ccc2nc(C)c(C(=O)/C=C/c3ccccc3C)c(-c3ccccc3)c2c1	inconclusive: 79.4 µM [inhibitor, partial curve, poor fit]
O=C(O)c1ccc2nccnc2c1	inactive
CC(Oc1ccc(Br)cc1)C(=O)N(Cc1nc(-c2ccccc2)no1)C(C)C (stereo unspecified)	inconclusive: 89.1 µM [inhibitor, partial curve, poor fit]
COc1ccc(-c2ccc(=O)n(CC(=O)Nc3ccccc3C(F)(F)F)n2)cc1	inconclusive: 89.1 µM [inhibitor, partial curve, poor fit]
Cc1cccc(NC(=O)C(Cc2ccccc2)N2Cc3ccccc3C2=O)c1C (stereo unspecified)	inconclusive: 63.1 µM [inhibitor, partial curve, poor fit]
CCc1ccc(NC(=O)c2ccc(F)c(S(=O)(=O)N3CCc4ccccc4C3)c2)cc1	inconclusive: 3.16 µM [inhibitor, full curve, poor fit]
CCC1CCCCN1CCCNC(=O)c1sc2nc(C)cc(C)c2c1-n1cccc1 (stereo unspecified)	inconclusive: 50.1 µM [inhibitor, partial curve, poor fit]
COc1cc2nc(Nc3ccc(C)c(C)c3)nc(N)c2cc1OC	inconclusive: 70.8 µM [inhibitor, partial curve, poor fit]
CS(=O)C1CCCCC1(O)CSc1nc(-c2cccs2)cc(-c2ccccc2)c1C#N (stereo unspecified)	inconclusive: 56.2 µM [inhibitor, partial curve, poor fit]
COc1ccc(CCNC(=O)c2cc(=O)c3c(C)cc(C)cc3o2)cc1OC	inconclusive: 25.1 µM [inhibitor, single point]
COc1ccc(N2CCN(C(CNC(=O)c3cccc(OC)c3)c3cccnc3)CC2)cc1 (stereo unspecified)	inconclusive: 50.1 µM [inhibitor, partial curve, poor fit]
CCOc1ccc(CN(C(=O)c2cc(=O)c3cc(Cl)ccc3o2)C2CCS(=O)(=O)C2)cc1 (stereo unspecified)	inconclusive: 39.8 µM [inhibitor, full curve, poor fit]
O=C(CSc1oc(-c2ccc(F)cc2)nc1S(=O)(=O)c1ccc(Cl)cc1)c1ccccc1	inconclusive: 89.1 µM [inhibitor, single point]
COC(=O)c1nnn(-c2ccc(Cl)cc2)c1C(=O)OC	inactive

Structure (SMILES)	Potency
O=C(CN1CCCN(Cc2cccc(F)c2)S1(=O)=O)Nc1ccc2c(c1)OCCO2	inconclusive: 56.2 µM [inhibitor, partial curve, poor fit]
Cc1ccc(NC(=O)C2CCN(C(=O)c3cnn(-c4ccccc4)c3-n3cccc3)CC2)cc1C	inconclusive: 39.8 µM [inhibitor, partial curve, poor fit]
COc1ccc(CNC(=O)c2cc3c(=O)[nH]c4ccccc4c3n2C)c(OC)c1	inconclusive: 31.6 µM [inhibitor, single point]
Cc1nn2c(=O)cc(COC(=O)C(c3ccccc3)c3ccccc3)nc2s1	inconclusive: 44.7 µM [inhibitor, partial curve, poor fit]
CCc1ccc(CNC(=O)CCCN2C(=O)c3cccnc3Oc3ccc(Cl)cc32)cc1	inconclusive: 79.4 µM [inhibitor, partial curve]
CCOC(=O)c1ccc(N2C(=O)c3[nH]nc(-c4ccc(OCC)cc4)c3C2c2ccc(OC)cc2OC)cc1 (stereo unspecified)	inconclusive: 89.1 µM [inhibitor, single point]
Cc1nc(N2CCCC2)c2c(C(=O)N3CCN(c4cccc(C)c4C)CC3)c(C)oc2n1	inconclusive: 89.1 µM [inhibitor, single point]
C/C(=N\NC(=O)Cc1cccs1)c1ccc2ccccc2c1	inactive
COc1cccc(CNC(=O)CN2C(=O)N(c3ccccc3C)S(=O)(=O)c3ccccc32)c1	inactive
CC(C)CC(C)N(C)CC(=O)NC(C)(C#N)C1CC1 (stereo unspecified)	inactive
CC(NC(=O)NCC1CCCC1)C(=O)NC(C)(C)C (stereo unspecified)	inactive
CC(C)CC(NC(=O)c1ccc(C(C)C)cc1)C(=O)O (stereo unspecified)	inactive
CCc1ccc(NC(=O)c2cc3c(=O)n(Cc4cccs4)ccc3nc2C)cc1	inconclusive: 28.2 µM [inhibitor, full curve]
COc1ccc2c(c1)c(=O)c(S(=O)(=O)c1ccc(C)c(C)c1)cn2CC(=O)Nc1ccccc1	inconclusive: 56.2 µM [inhibitor, partial curve, poor fit]
Cc1ccccc1-c1nc(CS(=O)(=O)CC(=O)NC(C)c2ccccc2)c(C)o1 (stereo unspecified)	inconclusive: 79.4 µM [inhibitor, partial curve, poor fit]
CCN(CCCNC(=O)c1cc2c(=O)n(CC)c3ccccc3c2s1)c1cccc(C)c1	inactive
COc1ccc(NS(=O)(=O)c2ccc(NC(=O)N3CCCC3)cc2)cc1	inactive
Cc1cc(OCCCSc2nc(-c3ccc(C(C)(C)C)cc3)nc3cc(=O)[nH]n23)ccc1Cl	inconclusive: 79.4 µM [inhibitor, partial curve, poor fit]
CN(C(=O)c1nc(-c2cccc(F)c2)n2c1CCCCC2)c1ccccc1F	inactive
